From PubChem BioAssay AID652104 (National Center for Advancing Translational Sciences (NCATS), 2013)
In all, about 410,000 compounds went through this assay and about 7,200 (1.8%) were called active. The shares of active, inactive and inconclusive entries below differ from those in the screen. The call rests on the fitted dose curve; in most records, active means well fitted activation curve with a large enough effect; inconclusive means small, poorly fitted or top-dose-only effect, or another doubt; inactive means no such curve, though single readings can be large or run the other way. No potency is given beside an inconclusive call; the fits are too rough.

experiment: qHTS of TDP-43 Inhibitors; details: TDP-43 expressing yeast growth rescue, BacTiter-Glo, 24 h; growth rescue (activation): at 46.1 µM (top of the series) unless noted; further: nearly all actives have a fitted effect of over 50% in size; on growth rescue (activation): % of control where 0% means no effect
How it was run: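 Galactose-induced TDP-43 yeast, OD600=0.02, compound pinned; 24 hr, 30 deg C; BacTiter-Glo luminescence for growth. Inhibitors of TDP-43 toxicity read as activators.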
Potency means the concentration at half of the fitted maximal effect; tags describe the fitted curve by direction and shape.

| SMILES | Potency | growth rescue (activation) |
| --- | --- | --- |
| O=C(c1cc2cc(Cl)ccc2[nH]1)N1CCN(C(=O)c2ccco2)CC1 | inconclusive [activator, partial curve] | – |
| Oc1ccc(-c2onc3ccc(Cl)cc23)cc1 | inconclusive [activator, partial curve, poor fit] | – |
| O=C(N[C@@H](Cc1ccccc1)C(=O)CCl)OCc1ccccc1 | inconclusive [activator, single point] | – |
| O=C(C(=O)N1CCC(c2ccccc2)CC1)c1cccc([N+](=O)[O-])c1 | inconclusive [activator, partial curve] | – |
| Cc1cccc(N2CCN(C(=O)c3ccc4ccccc4c3)CC2C)c1 (stereo unspecified) | inconclusive [activator, partial curve] | – |
| O=C(Nc1cc(C(=O)N2CCN(c3ccccc3O)CC2)ccc1Cl)c1cccs1 | inconclusive [activator, partial curve] | – |
| C=C(C)C(=O)Nc1nnc(-c2ccccc2C)s1 | inconclusive [activator, single point] | – |
| COc1ccc(-c2nc3scc(CCNS(=O)(=O)c4ccc(C)cc4)n3n2)cc1 | inconclusive [activator, partial curve] | – |
| COC(=O)C1=CN(CC2CCCO2)C=C(C(=O)OC)C1c1cc(OC)c(OC)c(OC)c1 (stereo unspecified) | – | inactive: -10.3% |
| CCOc1cc2sc(N3CCC(C(=O)Nc4ccc(C)cc4C)CC3)nc2cc1Br | inconclusive [activator, partial curve] | – |
| O=C(NC(=S)Nc1cccnc1)c1cccs1 | inconclusive [activator, single point] | – |
| Nc1nc(Nc2ccccc2F)nc(N2CCOCC2)c1[N+](=O)[O-] | inconclusive [activator, partial curve] | – |
| O=C(N/N=C/c1ccccn1)c1ccc(N/N=C/c2ccccn2)cc1 | inconclusive [activator, partial curve] | – |
| Cc1ccc(Sc2ccc(N)cc2C#N)cc1 | active: 22.4 µM | – |
| Clc1cccc(-c2nc3ccc(Cl)cn3c2Cc2ccsc2)c1 | inconclusive [activator, partial curve] | – |
| CCC1=Nc2cc(C(=O)NCCCOC)ccc2Sc2ccc(Br)cc21 | inconclusive [activator, single point] | – |
| CCc1ccc(CN(Cc2ccco2)c2cnc(S(C)(=O)=O)nc2C(=O)Nc2cccc(C)c2)cc1 | – | inactive: -6.66% |
| Fc1cccc(Cc2c(-c3ccco3)nc3c(Cl)cc(C(F)(F)F)cn23)c1 | active: 12.6 µM | – |
| Cc1onc(-c2ccccc2Cl)c1C(=O)Nc1ccc(-n2nncc2-c2ccco2)cc1 | – | inactive: -14.1% |
| COC(=O)c1ccc(NC(=O)CSc2nc(=O)[nH]c3c2CCCC3)cc1 | inconclusive [activator, full curve, poor fit] | – |
| Cn1ncc(Br)c1C(=O)NC1CCCCCCC1 | inconclusive [activator, partial curve] | – |
| COc1cccc(N2CCN(c3ncnc4c3cnn4-c3ccc(C)cc3C)CC2)c1 | inconclusive [activator, single point] | – |

| SMILES | Potency | growth rescue (activation) |
| --- | --- | --- |
| Cc1csc(NC(=O)c2cc(-c3ccccc3)nc3ccccc23)n1 | active: 17.8 µM | – |
| COc1ccc(-c2cn3c(C)c(C(=O)NC(C)(C)C)sc3n2)cc1 | inconclusive [activator, partial curve] | – |
| CCc1cnc2c(c1SCC(=O)c1ccccc1)c(=O)n(C)c(=O)n2C | – | inactive: 16.8% |
| CCOC(=O)[C@]12CCC=C1N(Cc1cccc3ccccc13)C(=O)[C@H](CC(=O)NCc1ccc(OC)c(OC)c1)C2 | inconclusive [activator, partial curve] | – |
| CCOc1cc(C(=O)OCc2cc(=O)n3nc(CC)sc3n2)cc(OCC)c1OCC | inconclusive [activator, single point] | – |
| O=C(Cc1ccccc1)NCCCN1CCN(CCCNC(=O)Cc2ccccc2)CC1 | inconclusive [activator, partial curve] | – |
| O=C1/C(=C/N(C(=O)c2ccco2)c2ccc(Cl)cc2)Sc2ccccc21 | inconclusive [activator, single point] | – |
| COc1cccc(C(O)c2nc(-c3cccc4cccnc34)cs2)c1 (stereo unspecified) | inconclusive [activator, partial curve] | – |
| c1ccc(-n2nnc3ccccc32)cc1 | inconclusive [activator, full curve] | – |
| CN1CCC(OC(c2ccccc2)c2ccc(Cl)cc2)C1 (stereo unspecified) | – | inactive: -14.7% |
| Cc1ccc(Sc2c([N+](=O)[O-])ncn2C)cc1 | active: 10 µM | – |
| COc1cc(N/N=C/c2ccccc2O)ncn1 | inconclusive [activator, single point] | – |
| CSc1nc2sc3c(c2c(=O)n1Cc1ccccc1)CCC(C(C)(C)C)C3 (stereo unspecified) | inconclusive [activator, full curve] | – |
| NC(=O)COC(=O)c1ccc(Oc2ccccc2)cc1 | inconclusive [activator, single point] | – |
| NC(=O)c1nc(-c2ccc(F)c(F)c2)nc2c1[nH]c(=O)n2-c1cccc(Cl)c1 | – | inactive: 20% |
| CCOc1ccc(OCc2ccc(C(=O)N3CCc4ccccc4C3)o2)cc1 | inconclusive [activator, single point] | – |
| CCCCn1c(N)c(N(CC(C)C)C(=O)Cc2ccc(S(=O)(=O)N3CCOCC3)s2)c(=O)[nH]c1=O | inconclusive [activator, partial curve, poor fit] | – |
| Cc1c(C(=O)NCc2cccc(Cl)c2)sc2nc3n(c(=O)c12)CCC3 | inconclusive [activator, single point] | – |
| CN(C(=S)NC(=O)C12CC3CC(CC(C3)C1)C2)c1ccc(O)cc1 | active: 17.8 µM | – |
| Cc1cccc(OCc2n[nH]c(=S)n2C2CCCCC2)c1 | inconclusive [activator, single point] | – |
| CCOc1cccc(C(=O)NC(=S)Nc2ccc(Cl)cc2C(=O)O)c1 | inconclusive [activator, partial curve] | – |
| CCOC(=O)C1CCCN(C(=O)c2cccc3ccccc23)CC1 (stereo unspecified) | inconclusive [activator, partial curve, poor fit] | – |

| SMILES | Potency | growth rescue (activation) |
| --- | --- | --- |
| Cc1cccc(N2CCN(C(=O)CCSCc3ccccc3F)CC2)c1C | active: 20 µM | – |
| COc1ccc(-c2nnn(Cc3nc(N)nc(N4CCCCC4)n3)n2)cc1 | inconclusive [activator, single point] | – |
| CNC(=S)N1N=C(c2ccc(C)cc2)CC1c1ccc(Cl)cc1 (stereo unspecified) | inconclusive [activator, partial curve] | – |
| O=C(CSC1=Nc2ccccc2C2CC=NN12)Nc1ccc2c(c1)OCO2 (stereo unspecified) | inconclusive [activator, single point] | – |
| CC(C)Oc1ccc(CNC(=O)c2ccc(Cn3c(=O)c4cccn4c4cccnc43)cc2)cc1 | inconclusive [activator, full curve, poor fit] | – |
| Cc1c(Cl)cccc1NC(=S)N1CCc2ccccc2C1 | inconclusive [activator, partial curve] | – |
| CCN(CC(=O)Nc1c(F)cccc1F)C(=O)c1ccc(-c2ccccc2)cc1 | – | inconclusive: 49.5% [activator] |
| C/C(=N\NC(=O)c1cc(Br)ccc1O)c1ccccn1 | inconclusive [activator, single point] | – |
| CC(=O)Nc1cc(C(F)(F)F)ccc1Oc1cccc(Br)c1 | active: 11.2 µM | – |
| CCOC(=O)c1c(C)n(-c2ccccc2)c2ccc(OC(=O)c3ccccc3NC(=O)C(C)(C)C)cc12 | – | inconclusive: -38.1% [activator] |
| COc1c(C)cccc1C(=O)Nc1ccc(N2CCN(C(=O)c3ccccc3C)CC2)cc1 | inconclusive [activator, single point] | – |
| CC1(C)CC(=O)C2=C(C1)Oc1ncn(Cc3ccco3)c(=N)c1C2c1ccccc1 (stereo unspecified) | inconclusive [activator, single point] | – |
| COc1ccc(C2=NC(C)(C)N(CC(=O)Nc3ccc(F)c(F)c3)C2=O)cc1 | inconclusive [activator, partial curve] | – |
| Cc1ccc(C(=O)NCCn2ccc3ccccc32)cc1[N+](=O)[O-] | inconclusive [activator, single point] | – |
| Cc1onc(-c2ccccc2Cl)c1C(=O)Nc1ccccc1 | inconclusive [activator, single point] | – |
| COC(=O)c1ccc(C(C2C(=O)CC(C)(C)CC2=O)C2C(=O)CC(C)(C)CC2=O)cc1 | inconclusive [activator, partial curve] | – |
| O=C(c1ccccc1)N1CCN(C(=O)N2CCOCC2)CC1 | – | inactive: 17.5% |
| CC(=O)c1ccc(NC(=O)Cn2c(=O)n(Cc3ccco3)c(=O)c3sc4ccccc4c32)cc1 | – | inactive: 0.619% |
| COc1ccc(/C=C/C(=O)c2ccc(O)cc2)cc1 | inconclusive [activator, partial curve] | – |
| Cc1ccc(N(Cc2cccs2)C(=O)COc2cccc(C)c2)cc1 | inconclusive [activator, partial curve, poor fit] | – |
| CCN1C(=O)/C(=C/c2ccc(C)o2)N(C)C1=S | inconclusive [activator, full curve, poor fit] | – |
| Cc1nc(-c2ccccc2)sc1CCNS(=O)(=O)c1ccccc1 | inconclusive [activator, single point] | – |
